Data as given in PubChem BioAssay AID624417 (National Center for Advancing Translational Sciences (NCATS), 2012).
About 6,400 (1.6%) of roughly 410,000 compounds were called active. The inconclusive results got no clear call from the source; some entries with a clear call stand among them for comparison. Calls come from the whole dose curve; as a rule, active = well fitted inhibition curve with a large enough effect; inconclusive = small, poorly fitted or top-dose-only effect; inactive = no such curve, though single readings can be large or run the other way. Where the call is inconclusive, the potency comes from a doubtful curve fit.

Biological target: Glucagon-like peptide 1 receptor (Homo sapiens) (UniProt P43220)
Assay: qHTS of GLP-1 Receptor Inverse Agonists (Inhibition Mode); note: nearly all actives have a fitted effect of over 55% in size
Conditions: HEK293 GLP-1R CRE-luciferase, luminescence, 24 h, GLP-1R form is constitutively active; activity change, negative = inhibition: at 38.3 µM (top of the series) unless noted
Summary of the method: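 Readout was luciferase luminescence, measured 12 min after detection reagent at room temperature. Beforehand, GLP-1R reporter HEK293 cells had sat 12 h, then received compounds for 24 hr at 37 deg C.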
% is set by controls: 0 for no effect and ±100 for the full control effect; potency is the fitted concentration of half-maximal effect; tags give direction and shape of the fitted curve.

Sequence of UniProt P43220 (P43220 whole entry, looked up): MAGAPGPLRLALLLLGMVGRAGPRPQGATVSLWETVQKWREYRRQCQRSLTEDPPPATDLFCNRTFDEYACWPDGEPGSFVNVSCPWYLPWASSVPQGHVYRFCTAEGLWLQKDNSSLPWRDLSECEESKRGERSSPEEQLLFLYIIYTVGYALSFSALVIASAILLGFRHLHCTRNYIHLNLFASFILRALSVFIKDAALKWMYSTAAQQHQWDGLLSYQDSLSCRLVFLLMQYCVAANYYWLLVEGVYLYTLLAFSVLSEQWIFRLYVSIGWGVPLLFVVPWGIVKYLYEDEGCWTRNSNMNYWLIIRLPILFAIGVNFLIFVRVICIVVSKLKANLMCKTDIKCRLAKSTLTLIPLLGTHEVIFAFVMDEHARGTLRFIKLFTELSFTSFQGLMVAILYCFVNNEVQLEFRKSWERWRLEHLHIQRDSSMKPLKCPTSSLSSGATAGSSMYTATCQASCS

Potency, active:
CCN1c2ccccc2-n2cccc2C12CCN(C(=O)Nc1ccccc1Br)CC2 10 µM, CC1CCCN(c2ncnc3c2cnn3-c2ccc(F)cc2)C1 (stereo unspecified) 8.91 µM, COc1cc(/C=C/C(=O)c2ccc(C)c([N+](=O)[O-])c2)cc(OC)c1O 10 µM, CC1(C(=O)Nc2ccccc2Cc2ccccc2)CCN1CCc1ccccc1 (stereo unspecified) 12.6 µM

Potency, inconclusive:
N#CCCn1cc(C(=O)Nc2ccc([N+](=O)[O-])cc2)c(-c2cccs2)n1 10 µM [inhibitor, partial curve, poor fit], NC(=O)[C@H]1CC2(CC(c3cccc(NC(=O)CC(c4ccccc4)c4ccccc4)c3)=NO2)CN1C(=O)C(c1ccccc1)c1ccccc1 (stereo partly specified) 2.82 µM [inhibitor, full curve], Cc1ccccc1-n1c(SCC(=O)Nc2ccc(Cl)cc2Cl)nc(O)cc1=O 28.2 µM [inhibitor, single point], CCCNC(=O)COc1cccc(C(=O)NCc2ccccc2)c1 0.316 µM [inhibitor, full curve, poor fit], CCN1C(=O)[C@H]2[C@@H](c3ccc(-c4ccc(F)cc4)cc3)N[C@@](Cc3ccccc3)(C(=O)OC)[C@H]2C1=O 20 µM [inhibitor, single point], CC(=O)Nc1cccc(NC(=O)CSc2ncc(-c3ccc(Cl)cc3)n2Cc2ccco2)c1 12.6 µM [inhibitor, partial curve, poor fit], Cc1ccc(CCC(=O)Nc2ccc(Br)cc2)o1 1 µM [inhibitor, full curve, poor fit], CC(C)n1nnc(-c2ccc(OCc3ccccc3F)cc2)n1 28.2 µM [inhibitor, single point], C(=C\c1ccccc1)/CN1CCN(C(c2cc3ccccc3o2)c2nnnn2-c2ccc3c(c2)OCCO3)CC1 (stereo unspecified) 28.2 µM [inhibitor, single point], COc1ccc(/C=C(/NC(=O)c2ccc(Br)cc2)C(=O)N2CCOCC2)cc1 10 µM [inhibitor, partial curve, poor fit], O=C(COc1ccc(Br)cc1)NNC(=S)NCc1ccccc1 28.2 µM [inhibitor, single point], CN1CCN(C(=S)NC(=O)c2ccc(C(C)(C)C)cc2)CC1 1.26 µM [inhibitor, partial curve, poor fit], CCOC(=O)C1Cn2c(nc3c(c2=O)C(C)(CC)Cc2ccccc2-3)S1 (stereo unspecified) 31.6 µM [inhibitor, single point], COc1ccc(-c2[nH]ncc2CN2CCN(c3ccc(F)cc3)CC2)cc1 28.2 µM [inhibitor, single point], O=C(CCSCc1cccc(Cl)c1)NCc1ccccc1Cl 14.1 µM [inhibitor, single point], CCn1nc(C)cc1C(=O)N1CCCC(C(=O)c2ccc(Oc3ccccc3)cc2)C1 (stereo unspecified) 28.2 µM [inhibitor, single point], O=C(COc1ccccc1Cl)Nc1cccc(S(=O)(=O)N2CCCC2)c1 28.2 µM [inhibitor, single point], COc1ccc(N2CC(NC(=O)C(=O)c3c[nH]c4ccccc34)CC2=O)cc1 (stereo unspecified) 28.2 µM [inhibitor, single point], CCN(CC)c1cc(C)c2cc(NC(=O)/C=C/c3ccccc3Cl)ccc2n1 14.1 µM [inhibitor, single point], COc1ccccc1Cn1c(=S)[nH]c2cc(C(=O)N3CCCC(C)C3)ccc2c1=O (stereo unspecified) 22.4 µM [inhibitor, single point], O=C(NCc1ccccn1)c1ccc2c(c1)N(Cc1ccccc1)CCS2 11.2 µM [inhibitor, partial curve, poor fit], Cc1[nH]c2ccccc2c1N=Nc1ccc(F)cc1 31.6 µM [inhibitor, partial curve, poor fit], CN1OC[C@@H]2CN(Cc3cc(Cl)cc(Cl)c3)[C@H](c3cccc(Br)c3)C[C@@H]21 12.6 µM [inhibitor, single point], O=C1C(NS(=O)(=O)c2cccs2)=C(N2CCN(c3cccc(C(F)(F)F)c3)CC2)C(=O)c2ccccc21 15.8 µM [inhibitor, partial curve, poor fit], COc1cccc(CNC(=O)c2cccc(Br)c2)c1 10 µM [inhibitor, single point], Cc1[nH]c2ccccc2c1SCC(=O)NNC(=O)Nc1ccc(OC(F)(F)F)cc1 11.2 µM [inhibitor, single point], CCC/C(O)=C1\C(=O)CC(C)(C)CC1=Nc1ccc(OC)cc1OC 5.62 µM [inhibitor, full curve, poor fit], CCC1NC(=O)c2ccccc2N1c1cccc(Cl)c1 (stereo unspecified) 10 µM [inhibitor, single point], COc1ccc(CNC(=O)CC23CC4CC(CC(C4)C2)C3)cc1OC 22.4 µM [inhibitor, single point], COc1ccc(C(=O)C2CCCN(Cc3ccc4nonc4c3)C2)c(C)c1 (stereo unspecified) 17.8 µM [inhibitor, single point], CCOc1ccc(NC(=O)CN(C)C(=O)c2sc3ccccc3c2Cl)cc1OCC 11.2 µM [inhibitor, partial curve, poor fit], C=CCN(c1cccc(C(F)(F)F)c1)S(=O)(=O)c1cccc(C(=O)OCC(=O)NC(N)=O)c1 2.82 µM [inhibitor, single point], Cc1ccc(Nc2nc(CSc3nnc(-c4cccs4)o3)cs2)cc1 28.2 µM [inhibitor, single point], CC(=O)OCC1(C)CN(c2ccccc2)NC1=O (stereo unspecified) 7.94 µM [inhibitor, partial curve], COC(=O)c1c(C)oc(C)c1S(=O)(=O)NCc1ccc(Cl)cc1Cl 22.4 µM [inhibitor, single point], CCCc1cc2c(cc1NC(=O)Cc1ccccc1)OCO2 14.1 µM [inhibitor, partial curve, poor fit], O=C(CSC(=S)N1CCSCC1)c1ccccc1 28.2 µM [inhibitor, single point], N#CC1=C(N)SC(N)=C(C#N)C1c1cccc(Oc2ccccc2)c1 28.2 µM [inhibitor, single point], COc1ccc(C)cc1N(CC(=O)NCCSCc1cccc(Cl)c1)S(C)(=O)=O 10 µM [inhibitor, single point], CN1CCN(c2nc(-c3ccccc3)cc(C(F)(F)F)n2)CC1 10 µM [inhibitor, partial curve, poor fit], CN(CCCNC(=O)c1cc2c(=O)[nH]c3ccccc3c2n1C)Cc1ccccc1 8.91 µM [inhibitor, partial curve, poor fit], Cc1nc2sc(C(N)=O)c(N)c2c(C)c1CC(=O)c1ccccc1 2.24 µM [inhibitor, full curve, poor fit], CC(C)CN1CCN(Cc2nc3ccccc3s2)CC1CCO (stereo unspecified) 15.8 µM [inhibitor, single point], CCCC(=O)Nc1sc2c(c1C#N)CCCC2 11.2 µM [inhibitor, single point], O=C(CS(=O)(=O)Cc1ccccc1)N1CCN(Cc2ccc3c(c2)OCO3)CC1 10 µM [inhibitor, single point], CC1CCc2c(C(=O)Nc3ccc(N4CCOCC4)cc3)csc2C1 (stereo unspecified) 8.91 µM [inhibitor, partial curve, poor fit]

Activity change, negative = inhibition, inactive:
COc1ccc(-c2nc3c4ccccc4n(CC(=O)Nc4ccc(C(C)C)cc4)c(=O)n3n2)cc1 12.4%, CCOC(=O)C1(C)NC(c2ccccc2F)C2C(=O)N(CC)C(=O)C21 (stereo unspecified) 20.2% [at 7.66 µM], Cc1nn(-c2nc3ccccc3[nH]2)c(=O)c2ccccc12 -95.8%, Cc1ccc(Sc2ncccc2C(=O)O)cc1 1.99%, O=C(NCCc1csc(-c2ccccc2)n1)c1ccccc1F -18.6%, COc1ccc(NC(=S)N/C(=N/S(=O)(=O)c2ccc(C)cc2)c2ccccc2)cc1 4.9%, CC1C/C(=C/c2ccccn2)C(=O)/C(=C/c2ccccn2)C1 (stereo unspecified) -91.5%, COc1ccccc1C(=O)N1CCN(Cc2cn[nH]c2-c2ccc(F)cc2F)CC1 -0.41%, Cc1cc(C)cc(NC(=O)N2CCC(C(N)=O)(N3CCCCC3)CC2)c1 12.6%, Cc1cccc(NC(=O)c2cc(-c3cc(C)c(C)cc3O)n[nH]2)c1 41.2%, O=C(O)c1cccc(-n2cccc2/C=C2\NC(=O)N(Cc3ccc(F)cc3)C2=O)c1 -10.4%, CC/C(C)=N/NC(=S)NCc1ccco1 -27%, COC(=O)C1SCC2C(=O)N(Cc3cccc(C)c3)CC(=O)N21 (stereo unspecified) 14%, CCC(=O)N/C(N)=N/c1nc2ccccc2o1 -12.8%, O=C(NCc1ccco1)c1cccc2c1C(=O)c1ccc(N3CCC(Cc4ccccc4)CC3)cc1S2(=O)=O -21.8%, CCc1nc2nc(C)c(NS(=O)(=O)c3ccc(Cl)s3)c(=O)n2[nH]1 11.4%
